First the molecules themselves.
B1: OR4K15 (parent)
chain: GUUAACGGUCAUAGGCCAUGGAAACUAGGAGCACCAUUUCGCUGCCAGUGAAGAAAUGAACAAAGAAAAUCUGGGCCAGGCAGGCAUCAAAAGAAAUAGUCUUGCGCUCAACCAGAAAGUCUGUAAUCAUUUUAAGGGUA

The source gives no read counts; variants with many changes may rest on few reads.

Variants of B1 are the subject of this series. Kind of series: self-cleavage, relative activity (ratio to wild type); higher = more cleavage; in vitro, sequencing; the parent is a self-cleaving ribozyme.
For the variant U49A A51G A56G A89U, the self-cleavage came to 0.71.
For the variant U43C A62G U122G A125G, the self-cleavage was determined as 1.45.
The figure for U43C U130C U131C is 0.81.
Then U43C U49C A69G, with 0.61; and U43A A114G A126C A135G, with 0; and U43C A60G A91G U130C, with 0.28.
For U43C A69G U100C U122C A126G, the self-cleavage was 1.5.
Then A47C A94G A116G, with 0.61.
Then U43C A67U A126G, with 0.64.
The figure for U43C U87C U132C is 1.44.
For A47U A64G U72A A114G A116G A117G, the self-cleavage worked out at 0.02.
A47U A51U A52G: the self-cleavage is 0.87.
The figure for U43G C61U A96G is 2.15; for U43A U57C A114C it is 0.07.
Then U43C A51U A96U A111U A117G U132A, with 0.02; and A47U A63U A117G, with 1.47; and A47U U87C A110G, with 0.09.
Turning to A47G A64U A90G, the self-cleavage amounted to 0.2.
Then U43C A94C U122C, with 1.46.
The figure for G44A A92U A95G A117G is 1.98.
Then A47G A90G U102C C105U, with 0.6; and A47G A63G A66G U100C U120A A126G, with 2.26.
In the case of U43C U87C A89G A95G, the self-cleavage was found to be 1.07.
Then G44C A94G A96G A116G, with 0.3; and G44A A52C A64G A69G A92G, with 1.24.
The figure for U43C A52G U72C U122C is 0.13.
As for U43C U70A A118G, the self-cleavage amounted to 0.29.
The figure for C46U A52G A60G U139C is 1.4.
Then G44A U70C A95G U108C, with 0.01; and A47G U72A U132A, with 0.26; and U43C A52G A78G, with 0.47.
Then U43C U87C A118G, with 0.34; and U49A A52G A96G U102C, with 2.02.
Consider A47G A52G A82G U131C, for which the self-cleavage was determined as 0.24.
The figure for U43C A63G U97C is 1.65.
As to U43A C46A U70C, the self-cleavage was 0.82.
Regarding A47G U72C A82G U100C, the self-cleavage came out at 0.38.
The figure for A47G A59G G65A is 0.91.
In the case of A47U A64G C71A, the self-cleavage was found to be 0.44.
The figure for A47G A98G A118U is 0.05; for U43C U49C A117G it is 1.09; for U43C U108C A116G it is 0.01.
U43C A52G U72A A111C: the self-cleavage was determined as 0.02.
On to U43C U72A A89G, for which the self-cleavage was 0.16.
The figure for A47G A56G A118G is 0.2.
Then A47G A63G A116G A126G, with 0.61; and A47G A54G A95G, with 1.92; and A47U A126U U139C, with 0.93.
The figure for U43C A52G A92G U108C is 0.01.
With U43C A60G G74A, the self-cleavage came out at 0.21.
As for A47U A78G U131C, the self-cleavage was 0.16.
Then A47G A92G A114G, with 0.11; and A47G A51G U139A, with 0.68; and A47G A52G U57C A118G, with 0.22.
Then A47G U108C U120C, with 0.01; and A47G G75A A78G U103C U122A, with 0.04; and A47U U72C U97C U100C U103C, with 0.17.
Then U43A A82G A92G A116G, with 0.26; and U43C G74A U108C, with 0.01.
Regarding U43C A51G U130C, the self-cleavage was 1.31.
On to U43A U102A U120C A140U, for which the self-cleavage came to 0.34.
Then A47G A55G U103C, with 0.27; and U43C A51G A68G A94G, with 0.17.
The figure for U43C A59G G74A A89G U127C is 0.06; for U43C C109U U130C U132C it is 0.26; for A47G U108G A116G it is 0.03.
In the case of A47U A56G G74A U131C, the self-cleavage was determined as 0.18.
Then G48A A60G A68G U70A U131C, with 0.37; and U43C A64G A68G A82U A96U, with 0.12.
Then C46U A51U A111G, with 0.01.
Then A47G U103C C105U U131C, with 0.
Regarding U43C A60C G75U A96G A116U U122A, the self-cleavage was 0.03.
In the case of A47G A52U A78G A90G U120C, the self-cleavage stood at 0.11.
For G44A A68G G93U A114G, the self-cleavage was 0.08.
The figure for A47G A51G A111U A114U is 0.02.
The figure for A47U A91G A114U is 0.04.
Then U43A G106A U132C, with 0.03; and U43C A94G U130C, with 0.9; and A47U A117G A126U, with 0.78.
For the variant U43C A69G A96G A117G U132A, the self-cleavage worked out at 0.87.
Then U43G A89G A140U, with 2.22; and A47G A51G A54G, with 2.03; and U43C A59G A69G U103C, with 0.72.
The figure for G44A A56G U122C is 1.91; for U43A A118U U131G it is 0.29; for U43C A68U C105A C113A it is 0.01.
Then U43C U70C U131C, with 0.32; and A47G U122A U131C, with 0.52; and U43A U49C U70A A92G, with 0.56.
In the case of C46U A78G C81U, the self-cleavage is 0.1.
The figure for A47G G48A G50A A59G U102C is 0.82.
U43C C46U A59G A62G A114G: the self-cleavage worked out at 0.35.
The figure for U49A A56G A78G A111G is 0.03; for A47U A55G A60G A82G it is 0.16; for U43C G115A U130C A134G it is 0.02.
Then A47G U124G A140G, with 0.75; and U43C U87C C121U, with 1.98; and A47G G83U A92U, with 0.37.
The figure for A47G A110G U127C is 0.02; for A47G A82U A86U it is 0.27.
In the case of U43C U100C U132C, the self-cleavage turned out to be 2.29.
The figure for A47C A59G A86U is 1.78; for U43G A59G U70C U87C A126G it is 1.27; for A47C G58U U102C U108G it is 0.01.
The figure for U49A A51G A60G A64G U102C U108C A116U A117U is 0.01; for A47U A60G U100C it is 2.04.
The figure for U43C A91G A125G is 0.15; for C46U A55G U72A A86C A92G it is 0.14; for C45U A82G A140G it is 0.39.
Turning to A47G U57A A60G A62G A90G C128U, the self-cleavage was 0.19.
The figure for A47G A51G A68G A82G is 0.32; for A47U A51U A64G A117G it is 1.03.
The figure for A47G A55G A59G is 0.42; for A47U A52G A54G U100C it is 1.55; for U43C A56G A135G it is 1.69.
Then U43C U49C A56G, with 1.65.
Take U43G A117G U130A: the self-cleavage amounted to 2.07.
As for A47U A89C G106A A111C, the self-cleavage is 0.
The figure for C46U A67G U108A U127C is 0.04; for A47C A68G A86G A114U it is 0.12.
As for U43C A60G A135G, the self-cleavage stood at 0.86.
Then A47U A63G A67G A78G U100C A126G U131C, with 0.08; and U43C A67G A69G U100C, with 2.16; and A47G A118C U122C, with 0.29.
For A47C A60U A64U, the self-cleavage was determined as 1.66.
As for U43C U97G G137A, the self-cleavage was 1.74.
Then A47G A54G A117G, with 1.75.
The figure for C45U A59G A116U U130C is 0.25; for U43C A86U U103C it is 1.24.
Then A47U A89U A117G, with 2.04.
Take A47U U49C A55U: the self-cleavage stood at 0.21.
The figure for C45U A90G U130A is 0.36; for A47G A59G A60G it is 0.79.
Then U49A A56G A118C, with 0.67; and A47G A64G A82G, with 0.67.
Consider G44U A66G A91C, for which the self-cleavage was 2.03.
Then U43C A56G U57A U100C, with 1.61.
As for U43C A59G A82G, the self-cleavage turned out to be 0.32.
Then C45U U57C A67G, with 1.02; and U43C A60U A62G G84C U120C A129G, with 0.08.
For the variant G44A A117G A118G, the self-cleavage was found to be 2.8.
Then A47G A60G A118G A125G, with 0.02; and A47U A91G U103C, with 0.56.
On to A47C U100C U103G, for which the self-cleavage is 0.01.
Then U43C A111G C121U, with 0.01; and A47U U122C U131C U139A, with 0.1.
The figure for U43A U120A U133A is 2.08; for A47G A59G A63G A96G it is 0.79; for U43A U87C A89G it is 1.51.
On to U43C A55G G75C U130A, for which the self-cleavage turned out to be 0.11.
With U43C A68G A110U, the self-cleavage is 0.53.
Then G44A A62G U108C, with 0.04.
The figure for U43C U108C A125G is 0; for A47G A56U U130C it is 0.33.
Then A47G A52G A59G, with 0.94.
For the variant G48A A51U U120C A126U, the self-cleavage was found to be 0.47.
Then A47G A63U A111G, with 0.01; and U43C G53U A110U A126G, with 1.01.
For the variant A47C A62U A68G, the self-cleavage was 1.32.
Then U43C A94U A116G U131C, with 0.22.
Regarding U43C A116G U120C U127C, the self-cleavage is 0.16.
The figure for A47C A66U U100C A118U is 1.26; for U43A G79A U100G A129G it is 0.07; for U43C U70C U72C U102C it is 0.27.
For A47G A63G A110G, the self-cleavage was determined as 0.09.
Then A47U U70A A91G A129G, with 0.11; and U43C U97C U127C, with 0.56.

Values taken from the RNAGym collection of RNA variant scans (doi:10.7554/elife.90254).
